# Test results taken from the supplement of paper PMC12217912.
# This is one part of the list. The full chains were built here from the parent and the listed change. Values near 0.05 are background.
# B1: TEV protease; numbered along this chain (parent)
# chain: MGESLFKGPRDYNPISSSICHLTNESDGHTTSLYGIGFGPFIITNKHLFRRNNGTLVVQSLHGVFKVKDTTTLQQHLVDGRDMIIIRMPKDFPPFPQKLKFREPQREERICLVTTNFQTKSMSSMVSDTSCTFPSGDGIFWKHWIQTKDGQCGSPLVSTRDGFIVGIHSASNFTNTNNYFTSVPKNFMELLTNQEAQQWVSGWRLNADSVLWGGHKVFMVKPEEPFQPVKEATQL
# Variants of: B1
# Test: raw area under fraction-flipped curve 0-4 h after induction (AUC4h, not background-subtracted), DNA-recorder readout of cleavage of the substrate (dimensionless); higher = more cleavage of the substrate by the protease variant
# Conditions: temperature: 34 °C; time window: 0-4 h after rhamnose induction
# Procedure: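 In vivo DNA recorder in E. coli TOP10(DE3) ΔrhaA at 34 °C. Each TEVp single-site mutant (parent TEVp 0) is paired with a single-site variant of the 7-mer TEVs (canonical ENLYFQ|S). The substrate sits between flexible linkers in a Bxb1-sfGFP-TEVs-SsrA fusion, so cleavage stabilises Bxb1 and speeds flipping of a recombination array, read by NGS. The value is the raw area under the fraction-flipped curve over 0-4 h after rhamnose induction (AUC4h), with ≥20 reads per time point. It is not background-subtracted; inactive controls average about 0.047.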
# 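Also: Bxb1 expression induced with 0.2% (w/v) L-rhamnose at OD600 near 0.5, cultures sampled hourly, flipped fraction per protease–substrate barcode pair counted by paired-end Illumina sequencing.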
Variant,area with substrate ENCYFQS,area with substrate ENDYFQS,area with substrate ENEYFQS,area with substrate ENFYFQS,area with substrate ENHYFQS,area with substrate ENIYFQS,area with substrate ENKYFQS,area with substrate ENMYFQS,area with substrate ENNYFQS,area with substrate ENQYFQS
MGESLFKGPRDYNPISSSICHLTNESDGHTTSLYGIGFGPFIITNKHLFRRNNGTLVVQSLHGVFKVKDTTTLQQHLVDGRDMIIIRMPKDFPPFPQKLKFREPQREERICLVTTNFQTKSMSSMVSDTSCTFPSGDGIFWKHWIQTKDGQCGSPLVSTRDGFIVGIHSASNFTNTNNYFTSVPKNFQELLTNQEAQQWVSGWRLNADSVLWGGHKVFMVKPEEPFQPVKEATQL [M188Q],0.0555,0.0621,0.0625,0.073,0.0646,0.122,0.055,0.0825,0.064,0.0585
MGESLFKGPRDYNPISSSICHLTNESDGHTTSLYGIGFGPFIITNKHLFRRNNGTLVVQSLHGVFKVKDTTTLQQHLVDGRDMIIIRMPKDFPPFPQKLKFREPQREERICLVTTNFQTKSMSSMVSDTSCTFPSGDGIFWKHWIQTKDGQCGSPLVSTRDGFIVGIHSASNFTNTNNYFTSVPKNFMELWTNQEAQQWVSGWRLNADSVLWGGHKVFMVKPEEPFQPVKEATQL [L191W],0.0623,0.0634,,,,,,0.0549,,0.0664
MGESLFKGPRDYNPISSSICHLTNESDGHTTSLYGIGFGPFIITNKHLFRRNNGTLVVQSLHGVFKVKDTTTLQQHLVDGRDMIIIRMPKDFPPFPQKLKFREPQREERICLVTTNFQTKSMSSMVSDTSCTFPSGDGIFWKHWIQTKDGQCGSPLVSTRDGFIVGIHSASNFTNTNNYFTSVPKNFMELLTFQEAQQWVSGWRLNADSVLWGGHKVFMVKPEEPFQPVKEATQL [N193F],0.0609,0.055,0.058,,0.0757,,,0.0815,0.0528,
MGESLFKGPRDYNPISSSICHLTNESDGHTTSLYGIGFGPFIITNKHLFRRNNGTLVVQSLHGVFKVKDTTTLQQHLVDGRDMIIIRMPKDFPPFPQKLKFREPQREERICLVTTNFQTKSMSSMVSDTSCTFPSGDGIFWKHWIQTKDGQCGSPLVSTRDGFIVGIHSASNFTNTNNYFTSVPKNFMELLTNQECQQWVSGWRLNADSVLWGGHKVFMVKPEEPFQPVKEATQL [A196C],0.0618,,,,,,,,,0.0623
MGESLFKGPRDYNPISSSICHLTNESDGHTTSLYGIGFGPFIITNKHLFRRNNGTLVVQSLHGVFKVKDTTTLQQHLVDGRDMIIIRMPKDFPPFPQKLKFREPQREERICLVTTNFQTKSMSSMVSDTSCTFPSGDGIFWKHWIQTKDGQCGSPLVSTRDGFIVGIHSASNFTNTNNYFTSVPKNFMELLTNQEPQQWVSGWRLNADSVLWGGHKVFMVKPEEPFQPVKEATQL [A196P],0.0606,,,0.0427,,,,0.0938,,0.0709
MGESLFKGPRDYNPISSSICHLTNESDGHTTSLYGIGFGPFIITNKHLFRRNNGTLVVQSLHGVFKVKDTTTLQQHLVDGRDMIIIRMPKDFPPFPQKLKFREPQREERICLVTTNFQTKSMSSMVSDTSCTFPSGDGIFWKHWIQTKDGQCGSPLVSTRDGFIVGIHSASNFTNTNNYFTSVPKNFMELLTNQEAQQWVMGWRLNADSVLWGGHKVFMVKPEEPFQPVKEATQL [S201M],0.0655,0.0601,0.0544,,0.0681,,,,0.0651,0.0648
MGESLFKGPRDYNPISSSICHLTNESDGHTTSLYGIGFGPFIITNKHLFRRNNGTLVVQSLHGVFKVKDTTTLQQHLVDGRDMIIIRMPKDFPPFPQKLKFREPQREERICLVTTNFQTKSMSSMVSDTSCTFPSGDGIFWKHWIQTKDGQCGSPLVSTRDGFIVGIHSASNFTNTNNYFTSVPKNFMELLTNQEAQQWVSGWRLNFDSVLWGGHKVFMVKPEEPFQPVKEATQL [A207F],0.0679,0.0651,,0.0643,0.0503,,,0.0654,,0.0388
MGESLFKGPRDYNPISSSICHLTNESDGHTTSLYGIGFGPFIITNKHLFRRNNGTLVVQSLHGVFKVKDTTTLQQHLVDGRDMIIIRMPKDFPPFPQKLKFREPQREERICLVTTNFQTKSMSSMVSDTSCTFPSGDGIFWKHWIQTKDGQCGSPLVSTRDGFIVGIHSASNFTNTNNYFTSVPKNFMELLTNQEAQQWVSGWRLNADSALWGGHKVFMVKPEEPFQPVKEATQL [V210A],0.0691,0.0624,0.0608,,,,0.0747,,,0.0592
MGESLFKGPRDYNPISSSICHLTNESDGHTTSLYGIGFGPFIITNKHLFRRNNGTLVVQSLHGVFKVKDTTTLQQHLVDGRDMIIIRMPKDFPPFPQKLKFREPQREERICLVTTNFQTKSMSSMVSDTSCTFPSGDGIFWKHWIQTKDGQCGSPLVSTRDGFIVGIHSASNFTNTNNYFTSVPKNFMELLTNQEAQQWVSGWRLNADSILWGGHKVFMVKPEEPFQPVKEATQL [V210I],0.0626,0.0643,,,,,,0.0689,,
MGESLFKGPRDYNPISSSICHLTNESDGHTTSLYGIGFGPFIITNKHLFRRNNGTLVVQSLHGVFKVKDTTTLQQHLVDGRDMIIIRMPKDFPPFPQKLKFREPQREERICLVTTNFQTKSMSSMVSDTSCTFPSGDGIFWKHWIQTKDGQCGSPLVSTRDGFIVGIHSASNFTNTNNYFTSVPKNFMELLTNQEAQQWVSGWRLNADSVLYGGHKVFMVKPEEPFQPVKEATQL [W212Y],0.076,,,0.0642,,,,,,

# Same assay, conditions: temperature: 34 °C; time window: 0-4 h after rhamnose induction
Variant,area with substrate ENVYFQS,area with substrate ENYYFQS,area with substrate ENGYFQS,area with substrate ENRYFQS,area with substrate ENSYFQS,area with substrate ENTYFQS,area with substrate ENPYFQS,area with substrate ENWYFQS
MGESLFKGPRDYNPISSSICHLTNESDGHTTSLYGIGFGPFIITNKHLFRRNNGTLVVQSLHGVFKVKDTTTLQQHLVDGRDMIIIRMPKDFPPFPQKLKFREPQREERICLVTTNFQTKSMSSMVSDTSCTFPSGDGIFWKHWIQTKDGQCGSPLVSTRDGFIVGIHSASNFTNTNNYFTSVPKNFQELLTNQEAQQWVSGWRLNADSVLWGGHKVFMVKPEEPFQPVKEATQL [M188Q],0.0698,0.0522,,,,,,
MGESLFKGPRDYNPISSSICHLTNESDGHTTSLYGIGFGPFIITNKHLFRRNNGTLVVQSLHGVFKVKDTTTLQQHLVDGRDMIIIRMPKDFPPFPQKLKFREPQREERICLVTTNFQTKSMSSMVSDTSCTFPSGDGIFWKHWIQTKDGQCGSPLVSTRDGFIVGIHSASNFTNTNNYFTSVPKNFMELWTNQEAQQWVSGWRLNADSVLWGGHKVFMVKPEEPFQPVKEATQL [L191W],0.0603,0.0558,0.0707,0.0527,0.0784,,,
MGESLFKGPRDYNPISSSICHLTNESDGHTTSLYGIGFGPFIITNKHLFRRNNGTLVVQSLHGVFKVKDTTTLQQHLVDGRDMIIIRMPKDFPPFPQKLKFREPQREERICLVTTNFQTKSMSSMVSDTSCTFPSGDGIFWKHWIQTKDGQCGSPLVSTRDGFIVGIHSASNFTNTNNYFTSVPKNFMELLTFQEAQQWVSGWRLNADSVLWGGHKVFMVKPEEPFQPVKEATQL [N193F],0.0664,,0.0618,,0.0574,0.0725,,
MGESLFKGPRDYNPISSSICHLTNESDGHTTSLYGIGFGPFIITNKHLFRRNNGTLVVQSLHGVFKVKDTTTLQQHLVDGRDMIIIRMPKDFPPFPQKLKFREPQREERICLVTTNFQTKSMSSMVSDTSCTFPSGDGIFWKHWIQTKDGQCGSPLVSTRDGFIVGIHSASNFTNTNNYFTSVPKNFMELLTNQECQQWVSGWRLNADSVLWGGHKVFMVKPEEPFQPVKEATQL [A196C],,,,,,,0.0529,
MGESLFKGPRDYNPISSSICHLTNESDGHTTSLYGIGFGPFIITNKHLFRRNNGTLVVQSLHGVFKVKDTTTLQQHLVDGRDMIIIRMPKDFPPFPQKLKFREPQREERICLVTTNFQTKSMSSMVSDTSCTFPSGDGIFWKHWIQTKDGQCGSPLVSTRDGFIVGIHSASNFTNTNNYFTSVPKNFMELLTNQEPQQWVSGWRLNADSVLWGGHKVFMVKPEEPFQPVKEATQL [A196P],0.0686,,,,0.0516,0.0448,,
MGESLFKGPRDYNPISSSICHLTNESDGHTTSLYGIGFGPFIITNKHLFRRNNGTLVVQSLHGVFKVKDTTTLQQHLVDGRDMIIIRMPKDFPPFPQKLKFREPQREERICLVTTNFQTKSMSSMVSDTSCTFPSGDGIFWKHWIQTKDGQCGSPLVSTRDGFIVGIHSASNFTNTNNYFTSVPKNFMELLTNQEAQQWVMGWRLNADSVLWGGHKVFMVKPEEPFQPVKEATQL [S201M],0.0777,0.0678,0.065,0.0375,0.0675,,0.0594,0.0565
MGESLFKGPRDYNPISSSICHLTNESDGHTTSLYGIGFGPFIITNKHLFRRNNGTLVVQSLHGVFKVKDTTTLQQHLVDGRDMIIIRMPKDFPPFPQKLKFREPQREERICLVTTNFQTKSMSSMVSDTSCTFPSGDGIFWKHWIQTKDGQCGSPLVSTRDGFIVGIHSASNFTNTNNYFTSVPKNFMELLTNQEAQQWVSGWRLNFDSVLWGGHKVFMVKPEEPFQPVKEATQL [A207F],,,0.0499,0.0729,0.065,0.0637,,0.0056
MGESLFKGPRDYNPISSSICHLTNESDGHTTSLYGIGFGPFIITNKHLFRRNNGTLVVQSLHGVFKVKDTTTLQQHLVDGRDMIIIRMPKDFPPFPQKLKFREPQREERICLVTTNFQTKSMSSMVSDTSCTFPSGDGIFWKHWIQTKDGQCGSPLVSTRDGFIVGIHSASNFTNTNNYFTSVPKNFMELLTNQEAQQWVSGWRLNADSALWGGHKVFMVKPEEPFQPVKEATQL [V210A],,,0.0709,,0.0326,0.0457,,0.0434
MGESLFKGPRDYNPISSSICHLTNESDGHTTSLYGIGFGPFIITNKHLFRRNNGTLVVQSLHGVFKVKDTTTLQQHLVDGRDMIIIRMPKDFPPFPQKLKFREPQREERICLVTTNFQTKSMSSMVSDTSCTFPSGDGIFWKHWIQTKDGQCGSPLVSTRDGFIVGIHSASNFTNTNNYFTSVPKNFMELLTNQEAQQWVSGWRLNADSILWGGHKVFMVKPEEPFQPVKEATQL [V210I],0.0718,,,,0.0591,0.0727,,
MGESLFKGPRDYNPISSSICHLTNESDGHTTSLYGIGFGPFIITNKHLFRRNNGTLVVQSLHGVFKVKDTTTLQQHLVDGRDMIIIRMPKDFPPFPQKLKFREPQREERICLVTTNFQTKSMSSMVSDTSCTFPSGDGIFWKHWIQTKDGQCGSPLVSTRDGFIVGIHSASNFTNTNNYFTSVPKNFMELLTNQEAQQWVSGWRLNADSVLYGGHKVFMVKPEEPFQPVKEATQL [W212Y],,,,,0.065,,0.0605,
